Values marked as one replicate rest on one cluster of the flow cell; about a third of the high ones do not repeat.
tested on: ATP; test: switch fluorescence ratio, 500 uM ATP over buffer (Cy3 cluster intensity, sum of 5 cycles each) (fold (ratio)); higher = stronger signal-on switching upon ATP binding; sequences stand for … in TCGTCGGCAGCGTCAGATGTGTATAAGAGACAGTTTTTTTTTTTTTTTTTTTTTTTTT…TC; details: aptamer strand: ATP DNA aptamer (quencher-CACCTGGGGGAGTATTGCGGAGGAAGG + anchor), 100 nM annealed; ATP concentration: 500 uM; one replicate
Summary of the method: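 After annealing to 100 nM quencher-labelled ATP aptamer, Cy3-labelled switching-strand clusters on a modified Illumina MiSeq flow-cell were imaged in selection buffer. A second image followed after 15 min with 500 uM ATP at 22 °C, and five such buffer/ATP cycles were done, each separated by NaOH stripping and re-annealing. The fluorescence ratio, averaged per switch-domain sequence, is summed target-cycle over summed buffer-cycle Cy3 intensity per cluster, with clusters outside 100-1000 RFU excluded.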
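Also: ATP exposure 15 min at 22 °C before imaging.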

| Sequence | switch fluorescence ratio |
| --- | --- |
| GATAAACAAG | 1.02 |
| GATAAACGAG | 0.977 |
| GATAAAGATT | 0.984 |
| GATAACCGAC | 2.65 |
| GATAACGCCC | 1.23 |
| GATAACGGTA | 1 |
| GATAACTCCG | 1.28 |
| GATAAGCTGG | 1 |
| GATAATGATA | 0.988 |
| GATAATGTCC | 1.03 |
| GATACAACGG | 1.25 |
| GATACAGAAG | 1.04 |
| GATACCTGGT | 1 |
| GATAGACCAC | 1.05 |
| GATAGACGGG | 0.985 |
| GATAGAGTCA | 0.966 |
| GATAGAGTTT | 1 |
| GATAGATCGC | 0.955 |
| GATAGATGAA | 0.991 |
| GATAGCAAGG | 1.13 |
| GATAGCATCT | 1.01 |
| GATATAAGGT | 1.03 |

| Sequence | switch fluorescence ratio |
| --- | --- |
| GATATAGAA | 0.985 |
| GATATCAGAG | 0.99 |
| GATATCCGA | 0.981 |
| GATATGCGGC | 1.05 |
| GATATTAGAA | 0.973 |
| GATATTCGTT | 1.01 |
| GATATTGGAC | 1 |
| GATCAAACAT | 1.01 |
| GATCACATAC | 1.61 |
| GATCACGGGC | 1.04 |
| GATCACTCAC | 1.29 |
| GATCAGAGCA | 1.02 |
| GATCAGCCAA | 1.04 |
| GATCATGATC | 1.02 |
| GATCATGGTA | 0.977 |
| GATCATTGCG | 0.959 |
| GATCCACAGA | 1.08 |
| GATCCAGCGA | 1.02 |
| GATCCATCCC | 1.01 |
| GATCCCACGT | 1.05 |
| GATCCTCTGA | 1.07 |
| GATCCTGTTC | 0.991 |

| Sequence | switch fluorescence ratio |
| --- | --- |
| GATCGAATTT | 0.978 |
| GATCGATGGC | 1.01 |
| GATCGCACGC | 1.94 |
| GATCGCGAGG | 0.962 |
| GATCGG | 1.07 |
| GATCGGCGCA | 1.06 |
| GATCGGTCTC | 0.954 |
| GATCGGTGTG | 0.976 |
| GATCGTGAAA | 1.03 |
| GATCGTTCGG | 0.914 |
| GATCTATAG | 1.04 |
| GATCTCAGT | 1.01 |
| GATCTCCTCT | 1.01 |
| GATCTCGATA | 1 |
| GATCTCTGGA | 1.07 |
| GATCTGGAGG | 1.03 |
| GATGAAAA | 1.01 |
| GATGAAAAG | 1.02 |
| GATGAAACGG | 1.02 |
| GATGAAACTG | 0.922 |
| GATGAAATGC | 1.85 |
| GATGAATCTA | 0.996 |

| Sequence | switch fluorescence ratio |
| --- | --- |
| GATGACATAG | 1.03 |
| GATGACCCCG | 1.05 |
| GATGACTTTC | 1.05 |
| GATGAGTAAG | 0.938 |
| GATGATTAGC | 0.981 |
| GATGCACTTA | 1.02 |
| GATGCCAGCT | 1.01 |
| GATGCCTATG | 1.03 |
| GATGCGAGCT | 0.955 |
| GATGCGAGGC | 1.46 |
| GATGCGGAC | 1.78 |
| GATGCGGTGG | 0.976 |
| GATGCTAGGG | 1 |
| GATGCTCATC | 0.992 |
| GATGGAGACT | 0.98 |
| GATGGAGCGG | 0.983 |
| GATGGAGCTG | 1.04 |
| GATGGAGTC | 1.01 |
| GATGGATAAA | 1 |

— the supplement of paper PMC10126150
